Conditions in all cases: rank among the four antibodies selected in Reference Example 1.7
Experiment [1] has as its target T1, c-Met (Homo sapiens, UniProt P08581). In words: Affinity / specificity for c-Met. The class given is binding.
The target in experiment [2] is T1, c-Met. The experiment can be described thus: c-Met degradation degree. The class given is cell-based.
In another experiment the test system is Akt phosphorylation. The experiment can be described thus: Akt phosphorylation. The class given is cell-based.

This note sets out measurements from patent publication US9567641B2, “Combination therapy for the treatment of cancer using an anti-C-met antibody” (SAMSUNG ELECTRONICS CO., LTD., priority 2013, dated 2017).

T1 sequence (P08581 25-1390): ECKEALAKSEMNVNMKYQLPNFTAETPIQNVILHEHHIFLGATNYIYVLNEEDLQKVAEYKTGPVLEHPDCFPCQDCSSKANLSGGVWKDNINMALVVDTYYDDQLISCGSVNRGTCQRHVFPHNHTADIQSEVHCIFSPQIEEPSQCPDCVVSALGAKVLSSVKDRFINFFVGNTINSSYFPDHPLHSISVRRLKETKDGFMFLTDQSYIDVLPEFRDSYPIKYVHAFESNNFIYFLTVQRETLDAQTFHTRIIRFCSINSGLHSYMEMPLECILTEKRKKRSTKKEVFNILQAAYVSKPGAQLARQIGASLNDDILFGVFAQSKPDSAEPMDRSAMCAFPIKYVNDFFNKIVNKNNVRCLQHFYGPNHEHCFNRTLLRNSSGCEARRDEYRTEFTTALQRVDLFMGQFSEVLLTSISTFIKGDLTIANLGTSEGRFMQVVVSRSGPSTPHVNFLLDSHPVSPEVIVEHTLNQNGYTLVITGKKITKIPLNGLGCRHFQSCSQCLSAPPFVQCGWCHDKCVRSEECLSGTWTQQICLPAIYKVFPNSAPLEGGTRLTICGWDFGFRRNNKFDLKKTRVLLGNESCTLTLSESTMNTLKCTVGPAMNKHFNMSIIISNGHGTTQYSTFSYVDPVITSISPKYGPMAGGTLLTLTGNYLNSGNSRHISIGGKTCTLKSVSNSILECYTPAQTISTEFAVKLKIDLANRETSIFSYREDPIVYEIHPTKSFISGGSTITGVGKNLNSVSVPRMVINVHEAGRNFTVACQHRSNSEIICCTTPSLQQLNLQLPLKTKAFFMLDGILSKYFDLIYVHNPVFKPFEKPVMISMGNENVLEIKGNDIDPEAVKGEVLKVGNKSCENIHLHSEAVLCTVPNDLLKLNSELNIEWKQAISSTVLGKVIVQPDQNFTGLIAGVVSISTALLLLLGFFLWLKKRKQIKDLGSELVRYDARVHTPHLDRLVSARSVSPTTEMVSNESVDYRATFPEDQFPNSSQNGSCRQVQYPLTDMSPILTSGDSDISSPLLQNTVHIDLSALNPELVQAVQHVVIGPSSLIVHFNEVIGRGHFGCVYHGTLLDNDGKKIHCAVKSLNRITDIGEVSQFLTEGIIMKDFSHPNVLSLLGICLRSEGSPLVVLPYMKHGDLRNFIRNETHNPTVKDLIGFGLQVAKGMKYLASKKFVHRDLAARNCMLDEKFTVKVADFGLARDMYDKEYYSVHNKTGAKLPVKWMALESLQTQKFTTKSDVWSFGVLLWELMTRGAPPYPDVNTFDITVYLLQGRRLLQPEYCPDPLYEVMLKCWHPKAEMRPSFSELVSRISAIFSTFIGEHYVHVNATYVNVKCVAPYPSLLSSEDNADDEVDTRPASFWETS

B1: huAbF46-H4-A1: affinity-matured anti-c-Met antibody, L3-1 origin (antibody)
heavy: EVQLVESGGGLVQPGGSLRLSCAASGFTFTDYYMSWVRQAPGKGLEWLGFIRNKANGYTTEYSASVKGRFTISRDNSKNTLYLQMNSLRAEDTAVYYCARDNWFAYWGQGTLVTVSSASTKGPSVFPLAPSSKSTSGGTAALGCLVKDYFPEPVTVSWNSGALTSGVHTFPAVLQSSGLYSLSSVVTVPSSSLGTQTYICNVNHKPSNTKVDKKVEPKSCDCH[not shown - human IgG1 Fc]
light: DIQMTQSPSSLSASVGDRVTITCKSSQSLLASGNQNNYLAWHQQKPGKAPKMLIIWASTRVSGVPSRFSGSGSGTDFTLTISSLQPEDFATYYCQQSYSRPYTFGQGTKVEIKRTVAAPSVFIFPPSDEQLKSGTASVVCLLNNFYPREAKVQWKVDNALQSGNSQESVTEQDSKDSTYSLSSTLTLSKADYEKHKVYACEVTHQGLSSPVTKSFNRGEC
Turning to B1, the “affinity for c-Met” value in the experiment with c-Met [1] is “highest”. In addition, the c-Met degradation degree result with c-Met [2] was “lowest”. Further, the Akt phosphorylation entry in the experiment on Akt phosphorylation was “lowest”.
